Laboratory results taken from the RNAGym collection of RNA variant scans (doi:10.7554/elife.90254).
Read counts are not given, so values of variants with three or more changes are uncertain.

B1: LINE1-full (parent)
chain: UACGUAGGUGGUUUUCCCCUGAUAGUGCUAAGGGGGCCUGGAAGUUUGGACUGGGCAGAGCUCAACACAGCGUGGCAAAGUGGCUGUGGCUAGACUGCCUCUCUGGAUUCCUCGUCACUCAGCAGGGCAUCUCUGAGAGAAAUGCC

Variants of: B1
Test: self-cleavage, relative activity (ratio to wild type); higher = more cleavage; in vitro, sequencing; the parent is a self-cleaving ribozyme

Variant | self-cleavage
U14C U85A U112A | 0.08
U15A U23C U39A U87A A92U | 0.1
U14C U46A U47C A140G | 3
U15A A92U U102C A107U A129G | 0
U15A U26C A142G | 1.04
U15A A57U A79G A94C | 0.15
U14C U46G G55A G139A | 0.21
U15A A31G U52A U96A | 0.22
U14C U85C U109C U130C | 0.59
U14C U96A A136G U143C | 0.09
U15A A24U U81C A117G | 0.71
U14G A57U A59G A107G | 0
U14C U87C A136U | 0
U14C U87C U134A | 0
U15A A69G G114A | 0.49
U14C U39C U85C A140U | 0
U14C U47C U104C | 1.31
U14C U45A G49A C95A | 0.06
U14C U52C A129U | 1.47
U15A U20C A50G | 0.42
U15A A30G A140G A142G U143C | 2.7
U15A A43G U102C G127U | 0.53
U14C U47C U62A U108C A140U | 0.49
U14C U100C C145U | 1.68

Variant | self-cleavage
U15A U26A A31C G49U C90U U91C | 0.05
U15A C28G A79G | 0.71
U15A A30U U46A U100C | 1.07
U14C U47C A94G A117U U143C | 0.18
U14C U46A U102C | 1.43
U14C U112C A136U | 1.95
U14G C37U A59U | 1.31
U14C U100C C131U A142G | 1.47
U15A U45C A69U U96C A121U G125U A136U | 0
U14C U45C A129G | 2.04
U14C U39C U52C A69G A138U | 0
U14C U100C A107G | 1.28
U14G U23C A79G U143A | 1.24
U14G U15A G36C G53A A142G | 0.97
U15A G21A U26A G32A | 0.92
U14G A67U A129U | 0.25
U15A A77G A138G | 1.92
U15A G33U A59U U119C | 1.21
U15A A64G A79G | 1.01
U15A U45C A136G | 0.93
U14C U45G A64G A141G | 0
U15A G36U A43G A69U | 0.08
U15A U29C A59G U62A A92G C111U | 0
U15A A78U U132C A142G | 1.87

Variant | self-cleavage
U15A A42G C90U U134C | 0.08
U14G U39A A79U C84G A121U | 0.11
U14G A42G A57U U62C | 0.24
U14C U62C U134A | 0.05
U15A A57U U91A U119A A142G | 0.06
U15A U23A A30U U52A G127A | 1.25
U14G U62A U87A A141G | 0.12
U14C U45C U134A | 0.84
U14C U62C U108C | 0.13
U14C U39C U45A U143C | 1.58
U14C U47C A140G | 1.28
U14C U81A U112A | 1.56
U14C U112A A142G | 1.38
U15A A30G A77G A124U | 1.72
U15A C56U U104C | 0
U14C U39C U87A U143A | 0.2
U15A A31G U134C | 0.79
U14C U47C A121G | 0.54
U14C U52A A67G U100C U115A A140G | 0.51
U14C U87G U134G | 0.3
U14C U52C A138G | 1.25
U14C U47A A124G | 1.12
U15A G35U U100C | 1.33
U14C U85A U100C | 0.24

Variant | self-cleavage
U15A U29G U102A | 0.64
U14C U102C A136U | 1.43
U15A U23C G36A A67G | 0.6
U14C U132C A140G | 1.42
U14C U47C A67G U130C | 1.15
U14C U47C U109A | 0.43
U14C U130C A140G U143C | 0.51
U14C U132C A136G | 1.71
U14C U100C A142G | 0.93
U14C U132C A142G | 1.11
U14C U39C U46C | 2
U14C U39C U46A | 1.53
U14C U62C A65U | 0.13
U14C U85A A92U | 0.23
U14C U108C U134A | 1.56
U14C U96A G126U A140U A142C | 0.08
U14G A22G U47A | 0.89
U14C U102A U143C | 1.3
U14C U62C G93U U102C | 0.06
U14C U73A U96C U102C A142G | 0.29
U14C U81C C118U | 1.9
U14C U85C A121G | 0
U14C U115C A141G | 1.62
U14C U39G U81G | 1.45

Variant | self-cleavage
U14C U62C U73C | 0.09
U14C U52C U132C A140G | 1.31
U14C U45C A121G | 1.27
U15A U39C A92G | 0.88
U15A A78G A140U | 1.03
U14C U96C A117U | 0
U14C U62A A124U A138U | 0.04
U15A A69G U100C U115C A141G | 0
U15A U29A U46C U134G | 0.71
U14G C99U U119C | 1.14
U14C U73C U115C A129U | 0
U15A G41U A79U A129G | 1.37
U14C U104C C128U | 0.48
U14C U85C U112C A138G | 0.48
U15A A57G A64U U119A U134A | 0.13
U15A U29A A78U | 1.54
U14C U39C C99U A141G | 0.65
U15A A24G A78C | 1.11
U15A A64G U130C | 0.23
U14C U87A U115A A142G | 0.18
U14C U73C U132C | 1.44
U15A U39C U47A A59G | 0.21
U14C U47C U81C | 0
U14G U46C G54C A141G | 0.65

Variant | self-cleavage
U14C U62C A94G | 0
U15A G49A U132C | 1.13
U15A A69C U102A | 0
U14C U47C U108C | 1.97
U14C U73C A79G | 1.84
U14G G32A U102C | 1.28
U15A U20A G49A A69G C84A U119C U134C | 0.03
U14C U104C U119C U134C | 1.93
U15A G48A A94G U119C U130C | 0.43
U14C U62C A138G | 0.1
U14C U87A A117U | 0.02
U15A A65U A107G | 0.29
U15A A22G G70A A78G | 0.15
U15A U45C A141G | 0.77
U15A A50G U52C | 0
U14C U52C U108C | 0
U14C U47C U100C A129G | 1.31
U15A G58U U104C U119C | 0.09
U14G U20C U81C A142G | 0
U14C U73A A138G | 1.91
U14C U62C G74A | 0.05
U14C U100C U112C A141G | 1.94
U14C U87C A107G | 0.24
U14C U46C U62C C110U | 0.11

Variant | self-cleavage
U14C U91C U96A | 0.35
U14C U47G A136G | 0.55
U15A U23C U112C | 0.69
U14C U52C A117U | 1.58
U14C U39C U47C A136G | 0.81
U14C U39C G40A A140G | 0.5
U14C U46C A138G | 1.52
U15A A59U G82A | 0.85
U15A C37G U100C | 0.92
U14C U45C U112C | 1.63
U14C U85A U119C | 0.07
U14C U87A U100C U112C | 0.22
U14C U46C A67G A79U A117G | 2.04
U15A C133A A141G | 0.69
U14C U87A U119C | 0.1
U15A G33U A79U U102C U132C A141G | 1.39
U14C U115C A136G | 2.63
U14C U73A G106A | 1.6
U14C U62C A136G | 0.09
U15A A67G U112A U134A | 0.57
U14C U96C A107G A142G | 0.18
U14C U109A U134C | 1.54
U15A U26C U87C | 0.51
